Data: PubChem BioAssay AID652106 (National Center for Advancing Translational Sciences (NCATS), 2013)
About 500 (0.14%) of roughly 370,000 compounds were called active. The inconclusive results got no clear call from the source; some entries with a clear call stand among them for comparison. Calls come from the whole dose curve; as a rule, active = well fitted activation curve with a large enough effect; inconclusive = small, poorly fitted or top-dose-only effect; inactive = no such curve, though single readings can be large or run the other way. Potencies beside an inconclusive call are fits to weak or partial responses and may not hold up.

assay: qHTS of alpha-syn Inhibitors; details: Yeast expressing alpha-synuclein, BacTiter-Glo, 24 h; Potency: growth rescue unless noted; growth rescue (activation): at 46.1 µM (top of the series) unless noted; note: nearly all actives have a fitted effect of over 65% in size; for growth rescue (activation): % of control where 0% means no effect
Method in brief: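 Screening used galactose-induced yeast with toxic alpha-synuclein levels, exposed to compound for 24 hr at 30 deg C. Cell growth, read with BacTiter-Glo luminescence, gave the measured signal.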
Potency is the fitted concentration of half-maximal effect; tags give direction and shape of the fitted curve.

Growth rescue (activation), inactive:
COc1ccc2[nH]c(-c3ccccc3)cc2c1 0.541%
CC(C)(C)c1ccc(S(=O)(=O)N2CCN(c3nc(-c4ccccc4)nc4ccccc34)CC2)cc1 0.573%
COc1ccc(C)cc1N1CC(C(=O)OCc2nc(N)nc(Nc3ccccc3C)n2)CC1=O (stereo not given) -0.787%
COc1cccc(CNc2ccc([N+](=O)[O-])cc2Cl)c1O -16.6%
COC(=O)Nc1nc(-c2ccccc2)c(C(=O)c2ccc(Cl)cc2)s1 -5.35%
C/C(=N\Nc1nc(C(C)(C)C)cs1)c1ccccc1 -25.6%
COc1ccc(C)cc1NC(=O)Cn1c(=O)oc2ccccc21 -4.4%
CCN(CC(=O)Nc1ccccc1C(F)(F)F)C(=O)c1ccc(N2CCCC2=O)cc1 -2.32%
CC1=CC(c2ccccc2)n2nc(N3C(=O)c4ccccc4C3=O)nc2N1 (stereo not given) 8.74%
CC(=O)Nn1cc2c(c1-c1ccccc1)c(=O)n(C)c(=O)n2C 9.75%
OCc1cn(-c2ccccc2)nc1-c1ccc(-c2nn(-c3ccccc3)cc2CO)cc1 -3.01%
CC1CCCC(C)N1S(=O)(=O)c1ccc(NC(=O)CNCC2CCCO2)cc1 (stereo not given) 2.2%
CCOc1cc(S(=O)(=O)NC2CC2)c(OCC)cc1-n1cnnn1 -0.0895%
CCOc1ccc(C(=O)CCC(=O)O)cc1 3.52%
COc1cccc(C(=O)Oc2ccc3ccc(O)cc3c2)c1 -1.46%
Cc1cccc2sc(NNC(=O)C3COc4ccccc4O3)nc12 (stereo not given) 7.62%
CCCOc1ccc(-c2c(C(=O)N/N=C/c3ccc(OCC)cc3)nnn2-c2nonc2N)cc1 3.61%
Cc1ccc(-n2ncc3c2CCCC3NC(=O)CSc2ccccn2)cc1C (stereo not given) -7.9%
Cc1ccc(Cl)cc1-c1cc(C(=O)NCc2ccco2)[nH]n1 4.47%
Cc1cccc(C)c1OCC(=O)Nc1ccc2c(c1)OCCO2 -0.0016%
Cc1noc(C)c1COc1ccc(C(=O)Nc2nnc(CC(C)C)s2)cc1 0.438% [at 1.84 µM]
COC(=O)c1ccccc1NC(=O)COc1ccccc1[N+](=O)[O-] 8.44%
COc1ccc(N2CCN(S(=O)(=O)CCNC(=O)COc3ccccc3)CC2)cc1 -12.2%
Cc1ccc(SCc2nc(N)nc(Nc3ccccc3C)n2)cc1C 2.47%

Potency, inconclusive:
Cc1cc(C)cc(NS(=O)(=O)c2ccc(-c3cnc(C4CC4)o3)cc2)c1 31.6 µM [activator, single point]
O=C(CSc1ccc(-c2cccnc2)nn1)c1ccc([N+](=O)[O-])cc1 28.2 µM [activator, single point]
O=C(Nc1ccccc1F)c1ccc(S(=O)(=O)N2CCCCCC2)cc1 11.2 µM [activator, partial curve]
CC1(C(=O)Nc2ccccc2)CCN1C(=O)CCc1ccc(Cl)cc1Cl (stereo not given) 22.4 µM [activator, single point]
CC1(C)Cc2cccc(OCC(=O)OCC(=O)c3ccccc3)c2O1 15.8 µM [activator, single point]
NC(=O)NC1NC(=O)NC1=O (stereo not given) 5.62 µM [activator, single point]
COc1ccc(-c2ccc(CCC(=O)O)o2)cc1 5.62 µM [activator, partial curve]
Cc1ccc(OC(C)C(=O)N2CC(=O)Nc3ccccc32)cc1 (stereo not given) 5.62 µM [activator, single point]
CC(Oc1cc(F)ccc1[N+](=O)[O-])C(=O)Nc1ccc(S(=O)(=O)N2CCCC2)cc1 (stereo not given) 20 µM [activator, single point]
CCOC(=O)N1CCN(S(=O)(=O)c2c(C)nc3scc(C)n3c2=O)CC1 35.5 µM [activator, single point]
CCc1ccc(N2C=C(C(=O)OC)C(c3ccccc3F)C(C#N)=C2N)cc1 (stereo not given) 22.4 µM [activator, single point]
Cc1ccc2c(c1)N(C(=O)CCC(=O)NCc1cccnc1)CC(C)O2 (stereo not given) 5.62 µM [activator, single point]
Cc1cccc(C)c1-n1nnnc1SCc1nc(N)nc(N(C)C)n1 3.55 µM [activator, single point]
COc1ccc(CCn2c(-c3ccco3)nc3ccccc3c2=O)cc1OC 31.6 µM [activator, single point]
COc1ccc(OC)c(/C=C/c2c3ccccc3cc[n+]2C)c1 28.2 µM [activator, single point]
Cn1cccc1CC(=O)NNC(=S)NC(=O)c1ccc(F)cc1 31.6 µM [activator, single point]
FC(F)(F)c1ccc(CN2CCN(Cc3ccco3)CC2)cc1 5.01 µM [activator, single point]
COc1ccc(S(=O)(=O)Nc2ccc3c(c2)C(=O)N([C@H](C)CO)C[C@H](C)[C@@H](CN(C)C(=O)Nc2ccc(C(F)(F)F)cc2)OCCCC[C@H](C)O3)cc1 17.8 µM [activator, single point]
COc1cccc(NC(=O)C2CC(=O)N(C)C(=Nc3cccc(F)c3)S2)c1 (stereo not given) 15.8 µM [activator, single point]
N#CCSc1nnc(-c2c[nH]c3ccccc23)o1 14.1 µM [activator, single point]
C=C(C)COc1ccc(-c2n[nH]c(C)c2Oc2ccccc2OC)c(O)c1 35.5 µM [activator, single point]
COC(=O)[C@]12CCCCC=C1N(CCC1=CCCCC1)C(=O)[C@H](CC(=O)NCc1cccc3ccccc13)C2 35.5 µM [activator, single point]
CC(C)(C)c1cc(C(=O)N/N=C/c2ccccc2O)n(-c2ccccc2)n1 14.1 µM [activator, single point]
Oc1c(C(c2ccccc2)N2CCN(Cc3ccccc3)CC2)sc2ncnn12 (stereo not given) 31.6 µM [activator, single point]
O=C(O)c1ccc(CN(Cc2ccccc2)S(=O)(=O)c2ccc(Cl)cc2)cc1 22.4 µM [activator, single point]
O=C(Oc1ccccc1-c1nnco1)c1ccccc1 35.5 µM [activator, single point]
CC1C(=O)N(Cc2cn(CCC3OCCCO3)nn2)CCS(=O)(=O)N1Cc1ccc(-c2ccncc2)cc1 (stereo not given) 5.62 µM [activator, single point]
Nc1ccc(S(=O)(=O)N2CCC(Cc3ccccc3)CC2)cc1 25.1 µM [activator, single point]
CCCCOC(=O)Nc1ccc(S(=O)(=O)Nc2onc(C)c2C)cc1 5.62 µM [activator, single point]
CCOc1cc(O)c(-c2[nH]ncc2-c2nc(C)cs2)cc1CC 25.1 µM [activator, single point]
COc1ccccc1C1(CC(=O)O)CCOC(C(C)C)C1 (stereo not given) 25.1 µM [activator, single point]
C[C@H](CO)N1C[C@H](C)[C@@H](CN(C)S(=O)(=O)c2ccc(F)cc2)Oc2ccc(NS(=O)(=O)c3ccc(F)cc3)cc2C1=O 35.5 µM [activator, single point]
COCCCN1C(=O)C(CC(=O)NCC2CCCCC2)CC(C(=O)N2CCOCC2)=C1C (stereo not given) 3.55 µM [activator, single point]
Cc1cc(C)n(-c2ccc(C(=O)N3CCN(S(=O)(=O)c4ccc(C(C)C)cc4)CC3)cc2)n1 5.01 µM [activator, single point]
CC(C)(C)C(=O)C(Oc1cccc2nonc12)n1cncn1 (stereo not given) 35.5 µM [activator, single point]
O=C(NNc1ccc(F)cc1F)c1c(F)cccc1Cl 5.62 µM [activator, single point]
CCOC(=O)c1ccc(N2C(=O)CC(N3CCC(C(N)=O)(N4CCCCC4)CC3)C2=O)cc1 (stereo not given) 12.6 µM [activator, single point]
COc1ccc(C(C)(O)c2nc(-c3cccc(C#N)c3)cs2)cc1 (stereo not given) 22.4 µM [activator, single point]
C/C(=N\Nc1ccc(C)c(Cl)c1)c1cccnc1 35.5 µM [activator, single point]
COc1ccc(-c2cc(=O)oc3c(C)c(OCC(=O)NCC4CCC(C(=O)O)CC4)ccc23)cc1 (stereo not given) 28.2 µM [activator, single point]
O=C(NN=Cc1cc([N+](=O)[O-])ccc1O)c1cccc2ccccc12 3.55 µM [activator, single point]
Cc1cccc2cc(CN(Cc3ccc(F)cc3)C(=O)C(F)(F)F)c3nnnn3c12 6.31 µM [activator, single point]
Cn1c(=O)c2cc3ccccc3nc2n(C)c1=O 22.4 µM [activator, single point]
COCCN1C(=O)c2cc(C(=O)Nc3cccc(F)c3)ccc2C1Nc1cccc(F)c1 (stereo not given) 5.62 µM [activator, single point]
CC(=O)c1cc(NC(=O)c2ccc(C)cc2)c(=O)oc1C 35.5 µM [activator, single point]

Potency, active:
Cc1ccccc1NCc1cccn1-c1nnc(N2CCOCC2)s1 12.6 µM
